The values below come from patent US9957330B2, “Polypeptides” (AFFIBODY AB, priority 2012, dated 2018).

The target in data set [1] is T1, CAIX-expressing SK-RC-52 cells (Homo sapiens, UniProt Q16790).
T1 construct: The CAIX-expressing renal clear cell carcinoma cell line SK-RC-52; endogenous in cells; host or cells: SK-RC-52 renal clear cell carcinoma cells (provided by Active Biotech, Sweden)
Nature of the data set: […] binding analysis on living cells. The class given is cell-based. To be noted: living SK-RC-52 cells, 4° C. How it is done: The CAIX-expressing renal clear cell carcinoma cell line SK-RC-52 was seeded on a local area of a cell culture dish (Nunclon™, Size 100620, NUNC NS, Roskilde, Denmark). The binding of ^99mTc-labeled Z variants to living cells was monitored in real-time at 4° C. using a […] Yellow (Ridgeview Instruments, Sweden) and established methods (Björkelund et al Appl Radiat Isot. 68:2372-6, 2010). […] The kinetic parameters were determined using the […] software.

A further data set relates to SK-RC-52 cells. Nature of the data set: Cellular processing (internalization) by SK-RC-52 cells. Particulars: 37° C. Format: cell-based. How it is done:
To evaluate the cellular processing, SK-RC-52 cells were incubated with the radiolabeled Z variants at 37° C. and 5% CO2. At designated time points (1, 2, 4, 8 and 24 h), a set of three dishes was removed from the incubator, the media was collected and cells were washed with ice cold serum-free medium. Cells were then treated with 0.5 ml of 0.2 M glycine buffer, pH 2, containing 4 M urea, for 5 min on ice. The acidic solution was collected and cells were washed with 0.5 ml glycine buffer. The acidic fractions were pooled. The cells were then incubated with 0.5 ml 1 M NaOH at 37° C. for at least 20 min. The cell debris was collected and the dishes were additionally washed with 0.5 ml of NaOH solution. The alkaline fractions were pooled. The radioactivity in the acidic solution was considered as membrane bound, and in the alkaline fractions as internalized.

In another data set the test system is SK-RC-52 xenografts. Details: species or system NMRI nu/nu mice. Particulars: mouse, in vivo. How it is done: Biodistribution studies were performed in female NMRI nu/nu mice. Two weeks before the study, 10×10^6 cells from renal clear cell carcinoma (SK-RC-52 cell line) were implanted in the right hind legs of NMRI nu/nu mice. Average tumor weight was 0.30±0.14 g at the time of experiment, and the average animal weight was 17.1±1.3 g. In order to determine the optimal injection dose, three groups of mice (n=4) were injected intravenously (tail vein) with three different doses (0.3 μg, 1 μg, and 5 μg, respectively) of ^99mTc-(HE)3-Z09781 in 100 μl PBS and sacrificed at 4 h post injection. Another three groups of mice (n=4) were injected with 1 μg to follow the clearance profile of ^99mTc-(HE)3-Z09781 at 1, 4 and 8 h post injection. To check the specificity of xenograft targeting of ^99mTc-(HE)3-Z09781, a group of mice (n=4) was subcutaneously pre-injected with 500 μg of unlabeled (His)6-Z06936 (parent Z variant to (HE)3-Z09781) and sacrificed at 4 h post injection. Blood, lung, liver, spleen, stomach, colon, duodenum, kidney, salivary glands, muscle, bone, intestines, tumor, and the remaining carcass were collected. Organs and tissue samples were weighed, and their radioactivity was measured. The tissue uptake values were calculated as percent of injected dose per gram tissue (% ID/g) except for the intestine and the carcass, which was calculated as % ID per whole sample.

B1: ^99mTc-(HE)3-Z09781: (HE)3-Z09781 radiolabeled with [99mTc(CO)3]+ (conjugate)
chain: HEHEHEAEAKYAKENLFAGWEIDDLPNLTEDQRNAFIYKLWDDPSQSSELLSEAKKLNDSQAPKVD
In data set [1] (first binding event), B1 had a ka1 of 7400 M⁻¹ s⁻¹ and a kd1 of 1e-05 s⁻¹. In addition, in data set [1] (second binding event), the ka2 is 1.3 × 10^4 1/MS and the kd2 stood at 0.0017 s⁻¹. The “Fraction internalized radioactivity after 24 h” value in the data set with SK-RC-52 cells amounted to 17%. For the same molecule, in the data set with SK-RC-52 xenografts, the blood clearance result is recorded as “rapid blood clearance”, the “decrease of blood-associated radioactivity” value is on record as “about 4 times”, the total tumor uptake result is recorded as “appreciably higher” and the “tumor uptake of radioactivity” value is recorded as “remained constant up to 8 h”. For the same molecule, the “tumor-to-blood and tumor-to-organ (except tumor-to-colon) ratios” value in the data set with SK-RC-52 xenografts was “the highest at 4 h”.
